Assay results published in PMC4336329 (PLoS ONE, 2015).
Hit rate of the full screen: of about 310,000 compounds, about 2,200 (0.71%) showed an effect of 50% or more. The effect is printed as a negative number. Some of the results follow.

target: human ether-à-go-go-related gene (hERG) potassium channel (human, UniProt Q12809); assay: primary screen, population patch clamp on CHO cells stably expressing hERG
Sequence (Q12809 whole entry, looked up): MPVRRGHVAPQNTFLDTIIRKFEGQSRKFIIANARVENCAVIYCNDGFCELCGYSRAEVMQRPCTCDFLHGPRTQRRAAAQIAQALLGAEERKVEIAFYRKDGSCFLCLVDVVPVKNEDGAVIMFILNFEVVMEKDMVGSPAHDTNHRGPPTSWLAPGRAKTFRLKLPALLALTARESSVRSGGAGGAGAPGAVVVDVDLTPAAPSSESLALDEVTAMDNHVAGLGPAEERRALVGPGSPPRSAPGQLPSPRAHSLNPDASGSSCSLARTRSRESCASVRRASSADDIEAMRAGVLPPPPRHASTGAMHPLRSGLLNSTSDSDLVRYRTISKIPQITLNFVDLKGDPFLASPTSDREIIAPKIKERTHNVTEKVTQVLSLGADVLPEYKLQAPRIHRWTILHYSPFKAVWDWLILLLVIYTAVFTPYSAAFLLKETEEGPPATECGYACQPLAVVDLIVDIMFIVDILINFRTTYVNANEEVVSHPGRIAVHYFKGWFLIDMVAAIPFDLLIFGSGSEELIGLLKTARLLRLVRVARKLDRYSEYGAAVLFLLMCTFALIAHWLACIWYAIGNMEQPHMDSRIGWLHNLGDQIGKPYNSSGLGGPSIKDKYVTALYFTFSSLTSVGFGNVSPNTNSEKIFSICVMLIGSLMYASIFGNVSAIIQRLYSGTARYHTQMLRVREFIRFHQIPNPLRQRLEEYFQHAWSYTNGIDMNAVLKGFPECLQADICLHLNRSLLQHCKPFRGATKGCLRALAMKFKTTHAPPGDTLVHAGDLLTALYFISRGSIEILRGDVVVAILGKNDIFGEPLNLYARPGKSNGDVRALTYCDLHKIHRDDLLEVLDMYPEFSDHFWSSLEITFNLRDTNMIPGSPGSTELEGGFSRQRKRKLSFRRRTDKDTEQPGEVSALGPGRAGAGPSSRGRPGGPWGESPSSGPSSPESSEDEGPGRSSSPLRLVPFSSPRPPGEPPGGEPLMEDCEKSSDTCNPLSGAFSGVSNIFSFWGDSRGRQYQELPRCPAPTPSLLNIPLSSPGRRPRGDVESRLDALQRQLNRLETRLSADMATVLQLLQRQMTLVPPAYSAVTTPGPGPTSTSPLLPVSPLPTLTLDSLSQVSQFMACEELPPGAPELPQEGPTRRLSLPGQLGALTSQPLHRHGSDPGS

Structure (SMILES)	hERG current change (%, negative = inhibition) at 1uM
Cn1ncc2cc(NC(=S)NC(=O)c3ccccc3)ccc21	3.88%
O=C(Nc1ccc2c(c1)OCO2)N1CCN(C/C=C/c2ccccc2)CC1	7.96%
CN(CC(O)COc1c(F)cc(Br)cc1F)C1CCCCC1.Cl (stereo not drawn)	-14%
CCOC(=O)CSc1nc(C)c2cc(C)c(C)cc2n1	10.4%
Cc1ccn2c(Nc3ccccc3)c(-c3ccccn3)nc2c1	3.82%
Nc1ccc(S(=O)(=O)NC(=O)c2ccccc2)cc1	6.98%
COc1ccc(NC(=O)NC2(C(=O)N3CCCCC3)CCCCC2)cc1	21.7%
NNC(=O)c1csc(-c2cccc(C(F)(F)F)c2)n1	0.179%
CCc1noc(C)c1C(=O)Nc1ncc(C)s1	3.48%
COc1ccc(NC(=O)CN(C)C(=O)c2cc(-c3ccc(Cl)cc3)nc3ccccc23)cc1	8.91%
CCOC(=O)c1[nH]c(C)c(C(=O)Nc2ccc3c(c2)OCCO3)c1C	-12.9%
Cl.OCCN1CCN(c2ncnc3ccc(Br)cc23)CC1	12.6%
Cc1nc(CC(=O)c2c(C)cc(O)cc2O)cs1	11.1%
COc1ccc(-c2nn(-c3ccccc3)cc2/C=N/Nc2ccccn2)cc1	12.8%
CCOc1ccccc1OCCCC(=O)NNC(=O)c1nn(C)c(=O)c2ccccc12	5.57%
COc1cccc(C(=O)c2cn(CC(=O)NCc3ccco3)c3nc(C)ccc3c2=O)c1	-6.17%
COC(=O)c1cc2c(ccc3ccccc32)oc1=O	7.94%
COCCNC(=O)Cn1cnc2c1c(=O)n(C)c(=O)n2C	5.36%
Cc1ccc2oc(=O)cc(CN3CCN(Cc4ccccc4)CC3)c2c1	-18.6%
COc1ccccc1NC(=O)c1cccc(S(=O)(=O)N2CCN(c3ccccc3)CC2)c1	8.92%
CCOC(=O)NC(CC(=O)O)c1ccc(OC)cc1 (stereo not drawn)	6.34%
CCOC(=O)c1cnc(SCC(=O)Nc2cc(OC)cc(OC)c2)nc1N	-1.11%
O=C(NC(=S)Nc1ccccc1C(=O)O)c1ccc(-c2ccc(Br)cc2)o1	10.9%

Structure (SMILES)	hERG current change (%, negative = inhibition) at 1uM
COC(=O)c1ccccc1NC(=O)c1ccc(Cn2cc(Cl)cn2)o1	2.95%
Cc1nccn1CCCN1C(=O)OC2(CCCCC2)C1(C)O (stereo not drawn)	11.6%
CS(=O)(=O)N(Cc1ccccc1F)c1ccccc1	10.3%
Cc1ccc(OCC(=O)NC(=S)Nc2ccccn2)c(Br)c1	6.22%
CCN(CC)CCCNC(=O)c1cn(CCOC)c(=O)c2c1c1ccccc1n2C	9%
O=C(CCCO)NC1Cc2ccccc2C1	13.2%
Cc1ccsc1C(=O)OCC(=O)Nc1sccc1C(N)=O	-3.16%
COc1cccc(CNC(=O)C(C)n2ccc3cc(S(=O)(=O)N4CCCCCC4)ccc32)c1 (stereo not drawn)	8.09%
COCCNC(=S)N/N=C(\C)c1ccc(-n2ccnc2)cc1	-17.5%
CCOC(=O)Oc1ccc(/C=C2\N=C(C)OC2=O)cc1	21.7%
Cn1c(SCC(=O)Nc2cc([N+](=O)[O-])ccc2F)nnc1C(F)(F)F	7.54%
COc1cccc(NC(=O)CC(c2ccc(OC(C)C)cc2)c2ccccc2OC)c1 (stereo not drawn)	7.48%
COc1ccc(N2CCN(S(=O)(=O)CCNC(=O)C3CC3)CC2)cc1	9.13%
Cc1ccc(-c2nnc(N3CCC(C)CC3)c3ccccc23)cc1C	20.6%
CCOC(=O)/C(C)=N/NC(=O)c1cccc([N+](=O)[O-])c1	11.4%
CCn1nnc2cc(C(=O)NCC(c3ccccc3OC)N(C)C)ccc21 (stereo not drawn)	12%
COC(=O)c1sc(NC(=O)CSc2nnc(Cn3nnc4ccccc43)n2C)nc1C	1.83%
COc1ccc(NC2c3ccccc3C(=O)N2c2cccnc2)cc1 (stereo not drawn)	1.56%
CCCn1c(CN2CCN(C(=O)OCC)CC2)nc2cc(NC(=O)C(C)C)ccc21	13%
O=C(NCCC1=CCCCC1)C(=O)NCC1OCCCN1S(=O)(=O)c1ccc(F)cc1 (stereo not drawn)	-0.891%
CCOC(=O)CCN=Cc1c(O)n(-c2ccc(Br)cc2)c(=O)[nH]c1=O	12%
CCN(Cc1ccc(C#CCCO)cc1)CC1CCCN(CCc2cccc(OC)c2)C1 (stereo not drawn)	2.99%
Cc1cc(C)n(C(=O)CNC(=O)c2cccs2)n1	11.2%

Structure (SMILES)	hERG current change (%, negative = inhibition) at 1uM
O=C(CN(Cc1ccccc1)C(=O)CCC(=O)Nc1nccs1)NCc1ccccc1	8.01%
CC(C)c1ccc(N2C(=O)NC(=O)/C(=C/c3cnc(-c4ccccc4)nc3)C2=O)cc1	1.66%
CC(C)N(C(=O)Nc1ccc2nccnc2c1)C(C)C	11.9%
COc1ccc(-n2c(SCC(=O)Nc3ccccc3C)nc(O)c(Cc3ccccc3)c2=O)cc1	15.1%
O=C(COc1coc(CN2CCN(c3ccccc3)CC2)cc1=O)Nc1ccc(F)cc1	10.4%
O=C(CN1CCN(S(=O)(=O)c2ccccc2F)CC1)NC1CCCC1	-0.655%
COc1ccc(C(C(=O)NCC2CCCO2)N(C(=O)CNC(=O)c2cccs2)c2ccc(C(C)=O)cc2)cc1OC (stereo not drawn)	18.2%
CN(C)S(=O)(=O)Oc1ccccc1C(=O)Nc1ccc(F)cc1	7.84%
COc1ccc(NC(=O)c2cnc(SC)nc2C)c(OC)c1	2.63%
COCC1CCN(C(=O)C2CCC(=O)N(C3CCCCCC3)C2)CC1 (stereo not drawn)	3.77%
OCCCc1nc2ccccc2[nH]1	11.1%
Cc1cc(C)cc(N2CCCn3c2nc2c3c(=O)n(CCN3CCOCC3)c(=O)n2C)c1	5.93%
COc1ccc(C(=O)CN2CCN(c3ccc(F)cc3)CC2)cc1	-0.388%
O=C1CSC(=S)N1c1ccc(O)cc1	14%
COC(=O)c1ccc(NC(=O)c2cccc(C)c2[N+](=O)[O-])cc1	7.66%
Fc1c(F)c(F)c(N/N=C/c2c[nH]c3ccccc23)c(F)c1F	7.82%
O=C(Nc1nn[nH]n1)c1ccc(S(=O)(=O)N2CCCCC2)cc1	22.5%
O=C(Cc1ccsc1)N1CCc2c([nH]c3ccccc23)C1c1ccccn1 (stereo not drawn)	12.7%
Cc1c2c(n3c(nc4ccccc43)c1C#N)N(CCCN(C)C)CC2	3.42%
CCNC(=O)c1c(O)c2c([nH]c1=O)CCCC2	12.5%
COC(=O)[C@H](Cc1ccccc1)NC(=O)N1Cc2ccccc2C[C@H]1C(=O)OC	12%
Cn1nccc1CNC(=O)c1ccnn1C	18.6%
Cc1cccc(NC(=S)NNC(=O)c2csc3c2CCC(C)C3)c1 (stereo not drawn)	-5.08%

Structure (SMILES)	hERG current change (%, negative = inhibition) at 1uM
CCOC(=O)c1nc(NCc2cccc(OC)c2)c2ccccc2n1	4.64%
CSc1nc(C)cc(-n2cc(F)c(=O)[nH]c2=O)n1	4.14%
Cc1c(C)c2ccc(OCC(=O)N3CCC(C(=O)O)(c4ccccc4)CC3)cc2oc1=O	2.47%
CCC(=O)NC(c1ccc(C)cc1)c1cc([N+](=O)[O-])c2cccnc2c1O (stereo not drawn)	16.4%
CCOc1ccccc1CN1C(=O)NC(C)(c2ccccc2)C1=O (stereo not drawn)	-0.418%
CC(C)c1ccccc1NC(=O)COC(=O)c1ccc(Cl)c(S(=O)(=O)N2CCCCCC2)c1	19%
COc1ccccc1NC(=O)CC1SC(=N)N(c2ccccc2)C1=O (stereo not drawn)	6.39%
Cc1ccc2c(=O)c(C(=O)NCc3cccs3)c[nH]c2c1	14.7%
Cc1ccc(N2C(=O)C(CN3CCCCC3)C2c2ccccc2)cc1 (stereo not drawn)	-4.6%
CCCc1nnc(NC(=O)c2ccncc2)s1	2.57%
COc1ccc(CN(C(=O)/C=C/c2ccccc2Cl)C2CCS(=O)(=O)C2)cc1 (stereo not drawn)	10.5%
COc1cc(/C=N/NC(=O)CSc2ccccn2)ccc1OC(C)C	8.09%
O=C1/C(=C2\C(=O)N(Cc3ccc(F)cc3)c3ccccc32)SC(=S)N1CCS(=O)(=O)O	10.6%
COc1ccc(-c2cccc(NS(=O)(=O)c3cc([N+](=O)[O-])c(C)c([N+](=O)[O-])c3)c2)nn1	15.2%
CSc1ccccc1C(=O)Nc1ccc2c(c1)OCCO2	7.17%
CN(CCOc1cccc(C(F)(F)F)c1)Cc1ccccc1.O=C(O)C(=O)O	14.8%
COc1cccc(NC(=O)NCc2c(-c3ccccc3)noc2C)c1	-1.96%
O=C(CN1CCN(C/C=C/c2ccccc2)CC1)Nc1ccccc1C(=O)NC1CC1	-88.8%
O=C(Nc1nccs1)c1cccc(N2C(=O)C3C4C=CC(C4)C3C2=O)c1 (stereo not drawn)	-13.2%
COc1ccc(CCNC(=O)C2CCC(=O)N(CCc3ccc(OC)cc3)C2)cc1 (stereo not drawn)	33.9%
COc1cc(C2NC(=O)NC(c3ccccc3)=C2C(C)=O)cc([N+](=O)[O-])c1O (stereo not drawn)	10.5%
